# Some of the results follow.
# B1: Cohesin-mDCIR (Macaca mulatta) (protein)
# chain: GLDDLDAVRIKVDTVNAKPGDTVRIPVRFSGIPSKGIANCDFVYSYDPNVLEIIEIEPGDIIVDPNPDKSFDTAVYPDRKIIVFLFAEDSGTGAYAITKDGVFATIVAKVKEGAPNGLSVIKFVEVGGFANNDLVEQKTQFFDGGVNVGDTTEPATPTTPVTTPTTTDDLDAASFQKYSQLLEKMTTKDLVHTTLECVKKNMTTEETAWSCCPKNWKPFSSNCYFISTESASWQKSEKDCARMEAHLLVINTREEQDFIFQNLQEESAYFVGLSDPEGQRHWQWVDRTPYNESSTFWHPHEPSDPDERCVVLNFRKTPKRWGWNDVHCIVHQRSVCEMMKIHLHHHHHH
# What was measured:
# Test in all cases: glycan array binding signal (z-score within array); higher = stronger binding
# Conditions in all cases: glycan notation: IUPAC condensed, linker removed
# Neu5Ac(a2-3)GalNAc = molecular target: Neu5Ac(a2-3)GalNAc
# Outline: (§1)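 Glycan array binding is given as a within-array Z-score, which can be read as non-binding when negative. The arrays, 3228 of them, came from the Consortium for Functional Glycomics database and were retained only where the protein sequence was available. Z-scores were averaged across arrays of the same protein sequence at different concentrations or buffers and across linkers.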
# [1] = molecular target: Neu5Ac(a2-3)GalNAc(b1-4)GlcNAc
# Outline: as §1
# [2] = molecular target: Neu5Ac(a2-3)[GalNAc(b1-4)]Gal(b1-4)Glc
# Outline: as §1
# [3] = molecular target: Neu5Ac(a2-3)[GalNAc(b1-4)]Gal(b1-4)GlcNAc
# Outline: as §1
# [4] = molecular target: Neu5Ac(a2-3)[GalNAc(b1-4)]Gal(b1-4)GlcNAc(b1-3)GalNAc
# Outline: as §1
# [5] = molecular target: Neu5Ac(a2-3)[Neu5Ac(a2-6)]GalNAc
# Outline: as §1
# Neu5Ac(a2-6)Gal = molecular target: Neu5Ac(a2-6)Gal
# Outline: as §1
# [6] = molecular target: Neu5Ac(a2-6)Gal(b1-3)GlcNAc(b1-3)[Gal(b1-4)GlcNAc(b1-6)]Gal(b1-4)Glc
# Outline: as §1
# Neu5Ac(a2-6)Gal(b1-4)Glc = molecular target: Neu5Ac(a2-6)Gal(b1-4)Glc
# Outline: as §1
# [7] = molecular target: Neu5Ac(a2-6)Gal(b1-4)GlcNAc
# Outline: as §1
# [8] = molecular target: Neu5Ac(a2-6)Gal(b1-4)GlcNAc(b1-2)Man
# Outline: as §1
# [9] = molecular target: Neu5Ac(a2-6)Gal(b1-4)GlcNAc(b1-2)Man(a1-3)Man(b1-4)GlcNAc(b1-4)GlcNAc
# Outline: as §1
# [10] = molecular target: Neu5Ac(a2-6)Gal(b1-4)GlcNAc(b1-2)Man(a1-3)[Gal(b1-4)GlcNAc(b1-2)Man(a1-6)]Man(b1-4)GlcNAc(b1-4)GlcNAc
# Outline: as §1
# [11] = molecular target: Neu5Ac(a2-6)Gal(b1-4)GlcNAc(b1-2)Man(a1-3)[GlcNAc(b1-2)Man(a1-6)]Man(b1-4)GlcNAc(b1-4)GlcNAc
# Outline: as §1
# [12] = molecular target: Neu5Ac(a2-6)Gal(b1-4)GlcNAc(b1-2)Man(a1-3)[GlcNAc(b1-4)][Neu5Ac(a2-6)Gal(b1-4)GlcNAc(b1-2)Man(a1-6)]Man(b1-4)GlcNAc(b1-4)GlcNAc
# Outline: as §1
# [13] = molecular target: Neu5Ac(a2-6)Gal(b1-4)GlcNAc(b1-2)Man(a1-3)[Man(a1-6)]Man(b1-4)GlcNAc(b1-4)GlcNAc
# Outline: as §1
# [14] = molecular target: Neu5Ac(a2-6)Gal(b1-4)GlcNAc(b1-2)Man(a1-3)[Neu5Ac(a2-3)Gal(b1-4)GlcNAc(b1-2)Man(a1-6)]Man(b1-4)GlcNAc(b1-4)GlcNAc
# Outline: as §1
# [15] = molecular target: Neu5Ac(a2-6)Gal(b1-4)GlcNAc(b1-2)Man(a1-3)[Neu5Ac(a2-6)Gal(b1-4)GlcNAc(b1-2)Man(a1-6)]Man(b1-4)GlcNAc(b1-4)GlcNAc
# Outline: as §1
# [16] = molecular target: Neu5Ac(a2-6)Gal(b1-4)GlcNAc(b1-2)Man(a1-3)[Neu5Ac(a2-6)Gal(b1-4)GlcNAc(b1-2)Man(a1-6)]Man(b1-4)GlcNAc(b1-4)[Fuc(a1-6)]GlcNAc
# Outline: as §1
# [17] = molecular target: Neu5Ac(a2-6)Gal(b1-4)GlcNAc(b1-2)Man(a1-6)Man(b1-4)GlcNAc(b1-4)GlcNAc
# Outline: as §1
# [18] = molecular target: Neu5Ac(a2-6)Gal(b1-4)GlcNAc(b1-2)Man(a1-6)[Gal(b1-4)GlcNAc(b1-2)Man(a1-3)]Man(b1-4)GlcNAc(b1-4)GlcNAc
# Outline: as §1
# [19] = molecular target: Neu5Ac(a2-6)Gal(b1-4)GlcNAc(b1-2)Man(a1-6)[GlcNAc(b1-2)Man(a1-3)]Man(b1-4)GlcNAc(b1-4)GlcNAc
# Outline: as §1
# [20] = molecular target: Neu5Ac(a2-6)Gal(b1-4)GlcNAc(b1-2)Man(a1-6)[Man(a1-3)]Man(b1-4)GlcNAc(b1-4)GlcNAc
# Outline: as §1
# [21] = molecular target: Neu5Ac(a2-6)Gal(b1-4)GlcNAc(b1-2)[Neu5Ac(a2-6)Gal(b1-4)GlcNAc(b1-4)]Man(a1-3)[GlcNAc(b1-4)][Neu5Ac(a2-6)Gal(b1-4)GlcNAc(b1-2)[Neu5Ac(a2-6)Gal(b1-4)GlcNAc(b1-6)]Man(a1-6)]Man(b1-4)GlcNAc(b1-4)GlcNAc
# Outline: as §1
# [22] = molecular target: Neu5Ac(a2-6)Gal(b1-4)GlcNAc(b1-2)[Neu5Ac(a2-6)Gal(b1-4)GlcNAc(b1-4)]Man(a1-3)[GlcNAc(b1-4)][Neu5Ac(a2-6)Gal(b1-4)GlcNAc(b1-4)Man(a1-6)]Man(b1-4)GlcNAc(b1-4)GlcNAc
# Outline: as §1
# [23] = molecular target: Neu5Ac(a2-6)Gal(b1-4)GlcNAc(b1-2)[Neu5Ac(a2-6)Gal(b1-4)GlcNAc(b1-6)]Man(a1-6)[Neu5Ac(a2-6)Gal(b1-4)GlcNAc(b1-2)Man(a1-3)][GlcNAc(b1-4)]Man(b1-4)GlcNAc(b1-4)GlcNAc
# Outline: as §1
# [24] = molecular target: Neu5Ac(a2-6)Gal(b1-4)GlcNAc(b1-3)Gal(b1-3)GlcNAc
# Outline: as §1
# [25] = molecular target: Neu5Ac(a2-6)Gal(b1-4)GlcNAc(b1-3)Gal(b1-4)GlcNAc
# Outline: as §1
# [26] = molecular target: Neu5Ac(a2-6)Gal(b1-4)GlcNAc(b1-3)Gal(b1-4)GlcNAc(b1-2)Man(a1-3)[Neu5Ac(a2-6)Gal(b1-4)GlcNAc(b1-3)Gal(b1-4)GlcNAc(b1-2)Man(a1-6)]GalNAc
# Outline: as §1
# [27] = molecular target: Neu5Ac(a2-6)Gal(b1-4)GlcNAc(b1-3)Gal(b1-4)GlcNAc(b1-3)Gal(b1-4)GlcNAc
# Outline: as §1
# [28] = molecular target: Neu5Ac(a2-6)Gal(b1-4)GlcNAc(b1-3)Gal(b1-4)GlcNAc(b1-3)Gal(b1-4)GlcNAc(b1-2)Man(a1-3)[Neu5Ac(a2-6)Gal(b1-4)GlcNAc(b1-3)Gal(b1-4)GlcNAc(b1-3)Gal(b1-4)GlcNAc(b1-2)Man(a1-6)]GalNAc
# Outline: as §1
# [29] = molecular target: Neu5Ac(a2-6)Gal(b1-4)GlcNAc(b1-3)Gal(b1-4)GlcNAc(b1-3)GalNAc
# Outline: as §1
# [30] = molecular target: Neu5Ac(a2-6)Gal(b1-4)GlcNAc(b1-3)Gal(b1-4)GlcNAc(b1-3)[Neu5Ac(a2-6)Gal(b1-4)GlcNAc(b1-3)Gal(b1-4)GlcNAc(b1-6)]GalNAc
# Outline: as §1
# [31] = molecular target: Neu5Ac(a2-6)Gal(b1-4)GlcNAc(b1-3)Gal(b1-4)GlcNAc(b1-6)[Gal(b1-3)]GalNAc
# Outline: as §1
# [32] = molecular target: Neu5Ac(a2-6)Gal(b1-4)GlcNAc(b1-3)Gal(b1-4)[Fuc(a1-3)]GlcNAc(b1-3)Gal(b1-4)[Fuc(a1-3)]GlcNAc
# Outline: as §1
# [33] = molecular target: Neu5Ac(a2-6)Gal(b1-4)GlcNAc(b1-3)GalNAc
# Outline: as §1
# [34] = molecular target: Neu5Ac(a2-6)Gal(b1-4)GlcNAc(b1-3)[Neu5Ac(a2-6)Gal(b1-4)GlcNAc(b1-6)]GalNAc
# Outline: as §1
binder,measurement,setting,value
B1,glycan array binding signal (z-score),Neu5Ac(a2-3)GalNAc,-0.315
same,glycan array binding signal (z-score),[1],-0.325
same,glycan array binding signal (z-score),[2],0.257
same,glycan array binding signal (z-score),[3],-0.245
same,glycan array binding signal (z-score),[4],-0.353
same,glycan array binding signal (z-score),[5],-0.232
same,glycan array binding signal (z-score),Neu5Ac(a2-6)Gal,-0.425
same,glycan array binding signal (z-score),[6],0.28
same,glycan array binding signal (z-score),Neu5Ac(a2-6)Gal(b1-4)Glc,-0.423
same,glycan array binding signal (z-score),[7],-0.311
same,glycan array binding signal (z-score),[8],-0.208
same,glycan array binding signal (z-score),[9],-0.373
same,glycan array binding signal (z-score),[10],-0.37
same,glycan array binding signal (z-score),[11],-0.463
same,glycan array binding signal (z-score),[12],-0.253
same,glycan array binding signal (z-score),[13],-0.443
same,glycan array binding signal (z-score),[14],-0.217
same,glycan array binding signal (z-score),[15],-0.416
same,glycan array binding signal (z-score),[16],-0.304
same,glycan array binding signal (z-score),[17],-0.316
same,glycan array binding signal (z-score),[18],-0.372
same,glycan array binding signal (z-score),[19],-0.357
same,glycan array binding signal (z-score),[20],-0.46
same,glycan array binding signal (z-score),[21],0.14
same,glycan array binding signal (z-score),[22],-0.257
same,glycan array binding signal (z-score),[23],-0.404
same,glycan array binding signal (z-score),[24],-0.172
same,glycan array binding signal (z-score),[25],-0.426
same,glycan array binding signal (z-score),[26],-0.045
same,glycan array binding signal (z-score),[27],-0.397
same,glycan array binding signal (z-score),[28],0.257
same,glycan array binding signal (z-score),[29],-0.438
same,glycan array binding signal (z-score),[30],-0.316
same,glycan array binding signal (z-score),[31],-0.414
same,glycan array binding signal (z-score),[32],-0.434
same,glycan array binding signal (z-score),[33],-0.128
same,glycan array binding signal (z-score),[34],-0.389

# From the supplement of paper PMC8728848
